The test addresses T1, IAANS-labelled peptide σ32-Q132-Q144-C (E. coli).
T1 construct: residues Q132-Q144 of σ32, the E. coli heat shock transcription factor; cysteine added at the C-terminus of the peptide (the '-C' of its name); also called 2-(4'-(iodoacetamido)anilino)naphthalene-6-sulfonic acid labelled σ32-Q132-Q144-C; substrate
T1 peptide: QRKLFFNLRKTKQC(IAANS)
Briefly: fluorescence dissociation kinetics (chase with unlabelled peptide); in the presence of ATP; 0.5 μM DnaK and 0.5 μM IAANS-labelled peptide pre-incubated at least 30 min, then mixed with 50-fold excess of unlabelled peptide; HKM buffer, 30 °C; stopped flow. The note with it: both partners purified.

This is an account of results in publication PMC4595643, “Pathways of allosteric regulation in Hsp70 chaperones” (Nature Communications, 2015).

Ends that are not written are not given here. * marks the point of attachment. IAANS = 2-(4'-(iodoacetamido)anilino)naphthalene-6-sulfonic acid label, O=C(C*)Nc1ccc(Nc2ccc3cc(S(=O)(=O)O)ccc3c2)cc1

B1: DnaK-F146A (natural protein)
chain: not shown
notes: DnaK, the Hsp70 of Escherichia coli, Phe146 replaced by alanine; source: E. coli ΔdnaK52 cells (BB1553), purified (Ni-IDA, Resource Q), nucleotides removed
For the molecule B1, the “peptide dissociation rate with ATP relative to DnaKwt” value is 3 % of DnaKwt.

B2: DnaK-Y145A (natural protein)
chain: not shown
notes: DnaK, the Hsp70 of Escherichia coli, Tyr145 replaced by alanine; source: E. coli ΔdnaK52 cells (BB1553), purified (Ni-IDA, Resource Q), nucleotides removed
B2: the “peptide dissociation rate with ATP relative to DnaKwt” value was 27 % of DnaKwt.
